Source: article PMC9618446 (Biomedicine & Pharmacotherapy, 2022)

Test system: SARS-CoV-2 nucleoprotein (NP) expression
Format: cell-based

| Structure (SMILES) | expression of NP in Vero-E6 cells (indirect immunofluorescence) |
| --- | --- |
| COc1c(O)cc2oc(-c3ccccc3)cc(=O)c2c1O [OA, Oroxylin A] | significantly inhibited the expression of NP in Vero-E6 cells in a dose-dependent manner |
| O=C(O)[C@H]1O[C@@H](Oc2cc3oc(-c4ccc(O)cc4)cc(=O)c3c(O)c2O)[C@H](O)[C@@H](O)[C@@H]1O [SC, Scutellarin] | significantly inhibited the expression of NP in Vero-E6 cells in a dose-dependent manner |
| COc1ccc([C@@H]2CC(=O)c3c(O)cc(O)cc3O2)cc1O [HE, Hesperetin] | significantly inhibited the expression of NP in Vero-E6 cells in a dose-dependent manner |
